The values below come from article PMC9911399, “Two distinct binding modes provide the RNA-binding protein RbFox with extraordinary sequence specificity”.

Sequences and labels used below:
T1: RBFOX1 RRM (Homo sapiens, UniProt Q9NWB1 109-208)
T1 sequence: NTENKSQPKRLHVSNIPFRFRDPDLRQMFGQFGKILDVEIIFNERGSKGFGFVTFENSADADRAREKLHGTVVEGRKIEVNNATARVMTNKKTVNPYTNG

B1: CCUUGGU (DNA:RNA)
RNA: GGGAGACCGGAAUUCAGAUUGUCCCCUUGGUUUAAAUCCCGUCGUAGCCACCA
DNA 1: CAATCTGAATTCCGGTCTCCC
DNA 2: TGGTGGCTACGACGGGATT
B2: CACAAUC (DNA:RNA)
RNA: B1 RNA with C26A, U27C, U28A, G29A, G30U, U31C
DNA 1: CAATCTGAATTCCGGTCTCCC
DNA 2: TGGTGGCTACGACGGGATT
B3: AGGAACG (DNA:RNA)
RNA: GGGAGACCGGAAUUCAGAUUGUCCAGGAACGUUAAAUCCCGUCGUAGCCACCA
DNA 1: CAATCTGAATTCCGGTCTCCC
DNA 2: TGGTGGCTACGACGGGATT
B4: CUCAUGC (DNA:RNA)
RNA: B1 RNA with C26U, U27C, U28A, G29U, U31C
DNA 1: CAATCTGAATTCCGGTCTCCC
DNA 2: TGGTGGCTACGACGGGATT
B5: AAAUGUG (DNA:RNA)
RNA: B3 RNA with G26A, G27A, A28U, A29G, C30U
DNA 1: CAATCTGAATTCCGGTCTCCC
DNA 2: TGGTGGCTACGACGGGATT
B6: UCUAGAA (DNA:RNA)
RNA: B1 RNA with C25U, U28A, G30A, U31A
DNA 1: CAATCTGAATTCCGGTCTCCC
DNA 2: TGGTGGCTACGACGGGATT
B7: GCCGCGC (DNA:RNA)
RNA: B1 RNA with C25G, U27C, U28G, G29C, U31C
DNA 1: CAATCTGAATTCCGGTCTCCC
DNA 2: TGGTGGCTACGACGGGATT
B8: AACGAAA (DNA:RNA)
RNA: B3 RNA with G26A, G27C, A28G, C30A, G31A
DNA 1: CAATCTGAATTCCGGTCTCCC
DNA 2: TGGTGGCTACGACGGGATT
B9: CUGGAUA (DNA:RNA)
RNA: B3 RNA with A25C, G26U, A28G, C30U, G31A
DNA 1: CAATCTGAATTCCGGTCTCCC
DNA 2: TGGTGGCTACGACGGGATT
B10: AACAACC (DNA:RNA)
RNA: B3 RNA with G26A, G27C, G31C
DNA 1: CAATCTGAATTCCGGTCTCCC
DNA 2: TGGTGGCTACGACGGGATT
B11: CACUGCA (DNA:RNA)
RNA: B1 RNA with C26A, U27C, G30C, U31A
DNA 1: CAATCTGAATTCCGGTCTCCC
DNA 2: TGGTGGCTACGACGGGATT
B12: GACCCGG (DNA:RNA)
RNA: B3 RNA with A25G, G26A, G27C, A28C, A29C, C30G
DNA 1: CAATCTGAATTCCGGTCTCCC
DNA 2: TGGTGGCTACGACGGGATT
B13: UUUAUAG (DNA:RNA)
RNA: B3 RNA with A25U, G26U, G27U, A29U, C30A
DNA 1: CAATCTGAATTCCGGTCTCCC
DNA 2: TGGTGGCTACGACGGGATT
B14: AAUGUGG (DNA:RNA)
RNA: B3 RNA with G26A, G27U, A28G, A29U, C30G
DNA 1: CAATCTGAATTCCGGTCTCCC
DNA 2: TGGTGGCTACGACGGGATT
B15: AGAUAAA (DNA:RNA)
RNA: B3 RNA with G27A, A28U, C30A, G31A
DNA 1: CAATCTGAATTCCGGTCTCCC
DNA 2: TGGTGGCTACGACGGGATT
B16: CGGUUCU (DNA:RNA)
RNA: B3 RNA with A25C, A28U, A29U, G31U
DNA 1: CAATCTGAATTCCGGTCTCCC
DNA 2: TGGTGGCTACGACGGGATT
B17: AUGCUUA (DNA:RNA)
RNA: B3 RNA with G26U, A28C, A29U, C30U, G31A
DNA 1: CAATCTGAATTCCGGTCTCCC
DNA 2: TGGTGGCTACGACGGGATT
B18: AUUUGUC (DNA:RNA)
RNA: B1 RNA with C25A, C26U, G30U, U31C
DNA 1: CAATCTGAATTCCGGTCTCCC
DNA 2: TGGTGGCTACGACGGGATT
B19: GAUGGUA (DNA:RNA)
RNA: B1 RNA with C25G, C26A, U28G, G30U, U31A
DNA 1: CAATCTGAATTCCGGTCTCCC
DNA 2: TGGTGGCTACGACGGGATT
B20: UAUUGUC (DNA:RNA)
RNA: B1 RNA with C25U, C26A, G30U, U31C
DNA 1: CAATCTGAATTCCGGTCTCCC
DNA 2: TGGTGGCTACGACGGGATT

Where a chain is given by its changes, count along the chain named. This is one part of the list.

This experiment concerns the target T1, RBFOX1 RRM. The experiment can be described thus: EMSA; HiTS-Eq, 1 nM pool, 10 min; buffer printed only for the single-RNA assays: 10 mM Tris pH 7.5, 150 mM NaCl, 3.4 mM EDTA, 0.001% NP-40, 30 C. The note with it: tags: His6 N-terminal (pET28a); label: 5' 32P. Summed up: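 Purified RbFox RRM, wild type or mutant, was incubated for 10 min in 50 µL with 1 nM of a 5′-radiolabelled RNA pool carrying 7 randomized nucleotides, whose flanks were annealed to DNA oligonucleotides, over a series of increasing protein concentrations. Unbound RNA was resolved on 8% native PAGE, cut out, reverse-transcribed, barcoded by PCR and sequenced on an Illumina HiSeq 2500. Relative association constants were derived from changes in read counts for each RNA species versus the control reaction and normalised to the cognate motif.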
On the technique in general: In EMSA bound probe runs differently from free probe, usually more slowly.
For B1, the binding signal is 0.0153 KA relative to UGCAUGU.

For the molecule B2, the binding signal was 0.000755 KA relative to UGCAUGU.

With B3, the binding signal is 0.0234 KA relative to UGCAUGU.

Consider B4, for which the binding signal was 0.0103 KA relative to UGCAUGU.

Consider B5, for which the binding signal was 0.01 KA relative to UGCAUGU.

On to B6, for which the binding signal was 0.00428 KA relative to UGCAUGU.

Regarding B7, the binding signal is 0.0197 KA relative to UGCAUGU.

B8: the binding signal is 0.00329 KA relative to UGCAUGU.

Regarding B9, the binding signal is 0.0159 KA relative to UGCAUGU.

Take B10: the binding signal is 0.000774 KA relative to UGCAUGU.

B11: the binding signal was 0.0115 KA relative to UGCAUGU.

In the case of B12, the binding signal was 0.0136 KA relative to UGCAUGU.

Regarding B13, the binding signal is 0.0083 KA relative to UGCAUGU.

On to B14, for which the binding signal is 0.0107 KA relative to UGCAUGU.

B15: the binding signal was 0.00192 KA relative to UGCAUGU.

As to B16, the binding signal is 0.014 KA relative to UGCAUGU.

On to B17, for which the binding signal is 0.00763 KA relative to UGCAUGU.

With B18, the binding signal was 0.0101 KA relative to UGCAUGU.

As to B19, the binding signal was 0.0226 KA relative to UGCAUGU.

With B20, the binding signal was 0.0146 KA relative to UGCAUGU.
